Test results reported in PubChem BioAssay AID504706 (National Center for Advancing Translational Sciences (NCATS), 2011).
The whole screen tested about 320,000 compounds, of which about 200 (0.062%) were called active. Inconclusive means that the source gave no clear call. Such entries were picked first, then a sample of the others. Calls come from the whole dose curve; as a rule, active = well fitted activation curve with a large enough effect; inconclusive = small, poorly fitted or top-dose-only effect; inactive = no such curve, though single readings can be large or run the other way. No potency is given beside an inconclusive call; the fits are too rough.

assay: qHTS assay for re-activators of p53 using a Luc reporter; conditions: H1299 p53-A138V BP100-luciferase reporter, luminescence, 24 h; series mostly up to 92.2 µM; note: nearly all actives have a fitted effect of over 45% in size
Procedure, shortened: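 p53-null H1299 cells stably carrying temperature-sensitive p53-A138V and a BP100-luciferase reporter were pinned with compounds (4-point, 1:5 series) and held 24 hrs at 37 deg C. Luminescence was read 10 min after detection reagent.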
Potency is the fitted concentration of half-maximal effect; tags give direction and shape of the fitted curve.

Question: With `O=C(Cc1ccccc1)N1CCN(c2ncccn2)CC1` as the compound, how does the Potency read?
Answer: inactive

Question: For `CNC(=O)c1cn(-c2ccc(Cl)cc2)c(=O)c2ccccc12`, which Potency is on record?
Answer: inactive

Question: With `COc1cccc(C(N)=O)c1OC(=O)Cc1ccccc1F` as the compound, how does the Potency read?
Answer: inconclusive [activator, full curve, poor fit]

Question: Which Potency does the source give for `CC(=O)NCCC(=O)Nc1nc2ccc(Oc3ccccc3)cc2s1` here?
Answer: inconclusive [activator, partial curve, poor fit]

Question: With `Cc1ccc(C)c2[nH]c(=O)c(CN(CCN3CCCC3)C(=O)Nc3ccc(F)cc3)cc12` as the compound, how does the Potency read?
Answer: inconclusive [activator, partial curve, poor fit]

Question: Which Potency does the source give for `N/C(=N\OC(=O)COc1ccccc1)c1cccnc1` here?
Answer: inactive

Question: For `COc1cccc(/C=N/NC(=O)c2ccc3nc[nH]c3c2)c1O`, which Potency is on record?
Answer: inactive

Question: With `Cc1ccc(-c2nc3sc4c(c3c(=O)n2N)CCCC4)cc1` as the compound, how does the Potency read?
Answer: inconclusive [activator, partial curve, poor fit]

Question: For `CC(NS(=O)(=O)c1cccc(Cl)c1)C(=O)Nc1ccc(-c2nc3ccccc3s2)cc1` (centres undefined), which Potency is on record?
Answer: inactive

Question: With `C(/C=C/c1ccco1)=N/N1CCN(c2ccccc2)CC1` as the compound, how does the Potency read?
Answer: inconclusive [activator, full curve, poor fit]

Question: Which Potency does the source give for `COc1cc(C(=O)Nc2ccc(N(C)C)cc2)c([N+](=O)[O-])cc1OC` here?
Answer: inconclusive [activator, single point]

Question: With `COc1ccc(Cc2nnc(N/N=C/c3ccc(O)cc3)[nH]c2=O)cc1OC` as the compound, how does the Potency read?
Answer: inconclusive [activator, full curve, poor fit]

Question: Which Potency does the source give for `CCOC(=O)/C=C(\C)Sc1cc(=O)oc2ccccc12` here?
Answer: inconclusive [activator, partial curve, poor fit]

Question: Which Potency does the source give for `COc1ccc(-c2ccc3oc(-c4ccsc4)c(-c4ccc(Br)nc4)c3c2)cc1` here?
Answer: inconclusive [activator, partial curve, poor fit]

Question: Which Potency does the source give for `Cc1cccn2c(=O)c3cc(C#N)c(=NC(=O)c4ccncc4)n(CCCOC(C)C)c3nc12` here?
Answer: inactive

Question: With `CC(C)COc1ccc(-c2nnc(-c3ccco3)o2)cc1` as the compound, how does the Potency read?
Answer: inconclusive [activator, partial curve, poor fit]

Question: Which Potency does the source give for `CC(C)c1ccc(-c2cc(C(=O)NN3CCN(C)CC3)c3ccccc3n2)cc1` here?
Answer: inconclusive [activator, full curve, poor fit]

Question: Which Potency does the source give for `NC(=O)C1CCN(C(=O)CSc2nc3ccccc3[nH]2)CC1` here?
Answer: inactive

Question: For `Cc1c(-c2ccn[nH]2)cc(NC(=O)c2ccc(Cl)cc2)c(=O)n1N`, which Potency is on record?
Answer: inactive
